Columns and labels:
mouse BCMA-MFC = test: SPR (Biacore 4000) binding kinetics to mouse BCMA-MFC; details: 25° C.
Protocol: (§1) The CM5 Biacore sensor surface was derivatized by amine coupling with a monoclonal mouse anti-human Fc antibody (GE, #BR-11008-39) to capture purified anti-BCMA mAbs and anti-BCMA×anti-CD3 bispecific mAbs. All Biacore binding studies were performed in a buffer composed of 0.01 M HEPES pH 7.4, 0.15M NaCl, 3 mM EDTA, 0.05% v/v Surfactant P20 (HBS-ET running buffer). […] Antigen samples were then injected over the anti-BCMA and anti-BCMA×anti-CD3 bispecific mAbs captured surfaces at a flow rate of 30 μL/minute. Antibody-reagent association was monitored for 5 minutes while dissociation in HBS-ET running buffer was monitored for 10 minutes. All of the binding kinetics experiments were performed at 25° C. Kinetic association (ka) and dissociation (kd) rate constants were determined by fitting the real-time sensorgrams to a 1:1 binding model using Scrubber 2.0c curve fitting software. Binding dissociation equilibrium constants (KD) and dissociative half-lives (t½) were calculated from the kinetic rate constants as: […]

human BCMA-MMH = biological target: T1, human BCMA-MMH (Homo sapiens, UniProt Q02223); test: SPR (Biacore 4000) binding kinetics to human BCMA-MMH; details: 25° C.
T1 construct: (human BCMA-MMH); myc-myc-hexahistidine (C); made in house
T1 sequence (Q02223 with tags, fused parts or gaps): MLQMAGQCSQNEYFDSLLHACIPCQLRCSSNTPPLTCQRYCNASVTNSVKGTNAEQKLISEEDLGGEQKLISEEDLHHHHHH
Protocol: as §1

monkey BCMA-MFC = test: SPR (Biacore 4000) binding kinetics to monkey BCMA-MFC; details: 25° C.; 30 nM antigen
Protocol: as §1

human BCMA-MFC = biological target: T2, human BCMA-MFC (Homo sapiens, UniProt Q02223); test: SPR (Biacore 4000) binding kinetics to human BCMA-MFC; details: 25° C.
T2 construct: (human BCMA-MFC); made in house
T2 sequence (Q02223 with tags, fused parts or gaps): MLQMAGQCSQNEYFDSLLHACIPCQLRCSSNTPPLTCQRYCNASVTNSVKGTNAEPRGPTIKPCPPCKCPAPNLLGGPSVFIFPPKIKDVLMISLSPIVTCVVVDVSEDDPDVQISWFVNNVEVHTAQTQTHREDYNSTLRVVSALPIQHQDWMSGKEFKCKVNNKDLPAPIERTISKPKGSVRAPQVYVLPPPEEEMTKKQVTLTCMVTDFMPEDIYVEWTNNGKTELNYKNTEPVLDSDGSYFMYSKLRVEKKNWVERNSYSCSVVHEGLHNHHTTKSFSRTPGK
Protocol: as §1

B1: mAb16716: anti-BCMA antibody, HCVR/LCVR SEQ ID NOs 18/26 (antibody, V domains shown)
VH: [about 100 residues not listed]RAGDNWNWFDPWGQGTLVTVSS
VL: DIQMTQSPSSVSASLGDRVTITCRASQGISSWLAWYQRKPGKAPKLLIYAASSLQSGVPSRFSGSGSGADFTLTISSLQPEDFATYYCQQAKSVPFTFGPGTKVDIK
ka (mouse BCMA-MFC): 205000 M⁻¹ s⁻¹
kd (mouse BCMA-MFC): 0.00385 s⁻¹
ka (human BCMA-MMH): 841000 M⁻¹ s⁻¹
kd (human BCMA-MMH): 0.00299 s⁻¹
30 nM mfBCMA.mFc Bind (RU) (monkey BCMA-MFC): 3.2 RU
ka (human BCMA-MFC): 862000 M⁻¹ s⁻¹
kd (human BCMA-MFC): 8.35e-05 s⁻¹

— patent US20260008862A1, “Bispecific Anti-BCMA x Anti-CD3 Antibodies and Uses Thereof” (Regeneron Pharmaceuticals, Inc., priority 2018, published 2026)
